Publication PMC11126936, “Reactivating Hippo by drug compounds to suppress gastric cancer and enhance chemotherapy sensitivity” (The Journal of Biological Chemistry, 2024)
Several values for one entry are separate records, joined by “and”; a condition that tells them apart may be missing. Equal entries are not always repeated. Structures can show the parent of a compound that is named as a salt.

What follows are compounds tested against T1, PP2Aa–STRN3 interaction (Homo sapiens, UniProt P30153) (assay: First-round AlphaScreen, PP2Aa–STRN3 disruption (Table S1)). Settings: primary AlphaScreen.
T1 sequence (P30153 8-589): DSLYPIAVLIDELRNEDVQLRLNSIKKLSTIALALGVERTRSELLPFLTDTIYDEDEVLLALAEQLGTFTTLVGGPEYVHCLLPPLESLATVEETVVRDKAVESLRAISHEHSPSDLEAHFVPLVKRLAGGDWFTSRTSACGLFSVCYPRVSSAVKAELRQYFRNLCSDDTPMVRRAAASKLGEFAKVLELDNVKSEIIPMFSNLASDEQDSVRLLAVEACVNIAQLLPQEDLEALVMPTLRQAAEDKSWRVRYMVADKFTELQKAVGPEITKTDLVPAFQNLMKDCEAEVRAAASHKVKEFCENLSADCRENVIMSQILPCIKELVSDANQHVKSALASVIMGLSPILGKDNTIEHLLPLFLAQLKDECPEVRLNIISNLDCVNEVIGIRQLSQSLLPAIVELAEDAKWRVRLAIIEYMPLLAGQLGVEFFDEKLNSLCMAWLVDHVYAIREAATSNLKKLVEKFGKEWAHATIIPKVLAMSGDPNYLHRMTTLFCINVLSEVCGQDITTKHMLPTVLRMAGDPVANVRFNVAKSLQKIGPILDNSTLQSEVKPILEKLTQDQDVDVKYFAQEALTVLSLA
`OC[C@H]1O[C@@H](OCCc2ccc(O)cc2)[C@H](O)[C@@H](O)[C@@H]1O` [Salidroside] was tested, and the “Inhibition rate (%)” value was -7.759%. In the case of `CNC1CCCN(c2c(F)cc3c(=O)c(C(=O)O)cn(C4CC4)c3c2OC)C1` (stereo not drawn) [Balofloxacin], the “Inhibition rate (%)” value is reported as -3.154%. In the case of `C[N+](C)(C)CC(=O)O` [BETAINE HYDROCHLORIDE], the “Inhibition rate (%)” value is reported as -6.8536%. With `NCCS(=O)(=O)O` [Taurine] the “Inhibition rate (%)” value was -6.659%.

Each compound was assayed against T2, STRN3–MST2 interaction (Homo sapiens, UniProt Q13188) (assay: Second-round validation AlphaScreen, STRN3–MST2 disruption (Table S4)). Settings: not given.
T2 sequence (Q13188 1-491): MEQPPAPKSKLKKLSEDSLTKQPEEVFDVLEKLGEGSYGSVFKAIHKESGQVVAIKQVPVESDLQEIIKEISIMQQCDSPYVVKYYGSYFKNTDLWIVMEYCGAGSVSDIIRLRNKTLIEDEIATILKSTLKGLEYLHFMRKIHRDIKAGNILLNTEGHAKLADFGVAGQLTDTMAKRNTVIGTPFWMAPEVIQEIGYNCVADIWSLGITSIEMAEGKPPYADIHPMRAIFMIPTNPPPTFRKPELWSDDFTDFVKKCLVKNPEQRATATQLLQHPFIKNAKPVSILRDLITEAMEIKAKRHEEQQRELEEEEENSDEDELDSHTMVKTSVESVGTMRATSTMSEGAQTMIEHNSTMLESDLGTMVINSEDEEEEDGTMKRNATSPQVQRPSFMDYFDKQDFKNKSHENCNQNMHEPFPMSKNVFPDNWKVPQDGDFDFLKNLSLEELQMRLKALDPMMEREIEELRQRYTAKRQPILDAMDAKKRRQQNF
In the case of `Cl.Fc1ccc(-n2cc(CCCCN3CCC4(CC3)OCc3ccccc34)c3ccccc32)cc1` [Lu-28-179], the “Inhibition rate (%)” value is reported as 47.2529%. In the case of `COc1ccc(C(=C2C(=O)Nc3ccccc32)c2ccc(OC)cc2)cc1` [TAS-301], the “Inhibition rate (%)” value is reported as 47.0007%. In the case of 6-BIO, the “Inhibition rate (%)” value is reported as 88.2157%.

Same assay, conditions: 2nd round validation screen, STRN3-MST2 disruption
With `NCC(=O)Nc1ccc(-n2nc(C(F)(F)F)cc2-c2ccc3c(ccc4ccccc43)c2)cc1` [osu-03012] the “Inhibition rate (%)” value was 60.145%. For `CCCCCCCCCCCCCCCC[N+](C)(C)CCN(Cc1ccc(OC)cc1)c1ncccn1` [THONZONIUM BROMIDE], the “Inhibition rate (%)” value was 76.4113%. In the case of `CC1(C)S[C@@H]2[C@H](N3C(=O)[C@@H](c4ccccc4)NC3(C)C)C(=O)N2[C@H]1C(=O)O` [HETACILLIN POTASSIUM], the “Inhibition rate (%)” value is reported as 87.1783%. For `CCOc1cc2ncc(C#N)c(Nc3ccc(F)c(Cl)c3)c2cc1NC(=O)/C=C/CN(C)C` [Pelitinib (EKB-569), Pelitinib], the “Inhibition rate (%)” value was 20.6862%. For `CC[C@@H](c1cccc(O)c1)[C@@H](C)CN(C)C.Cl` [Tapentadol Hydrochloride], the “Inhibition rate (%)” value was 25.2716%. Spiramycin was tested, and the “Inhibition rate (%)” value was 3.299%. With `NNc1nncc2ccccc12` [Hydralazine HCl] the “Inhibition rate (%)” value was 79.9365%. With `CCN1c2cc(N)ccc2-c2ccc(N)cc2C1c1ccccc1` (stereo not drawn) [Dihydroethidium] the “Inhibition rate (%)” value was 84.1416%. `NCCOc1cc(C(=O)Nc2cc(OCCN)c3ccccc3n2)nc(C(=O)Nc2cc(OCCN)c3ccccc3n2)c1` [Pyridostatin] was tested, and the “Inhibition rate (%)” value was 6.622%. With `C/C(=N\NC(=S)N1CCC1)c1ccccn1` [NSC319726] the “Inhibition rate (%)” value was 61.8353%. For Abamectin, the “Inhibition rate (%)” value was 42.4888%. In the case of `O=C1c2c(O)ccc(O)c2C(=O)c2c(NCCNCCO)ccc(NCCNCCO)c21` [Mitoxantrone HCl], the “Inhibition rate (%)” value is reported as 30.5153%. For `CCCCc1oc2ccccc2c1C(=O)c1cc(I)c(OCCN(CC)CC)c(I)c1` [Amiodarone hydrochloride], the “Inhibition rate (%)” value was 20.8848%. For `Cc1cc(-c2ccc(/N=N/c3ccc4c(S(=O)(=O)O)cc(S(=O)(=O)O)c(N)c4c3O)c(C)c2)ccc1/N=N/c1ccc2c(S(=O)(=O)O)cc(S(=O)(=O)O)c(N)c2c1O` [Evans blue], the “Inhibition rate (%)” value was 90.1602%. In the case of Teicoplanin, the “Inhibition rate (%)” value is reported as -18.5957%. For `COc1c2ccoc2cc2oc(=O)ccc12` [Bergapten], the “Inhibition rate (%)” value was 93.9669%. In the case of `CC(C)N1CCN(c2ccc(OCC3COC(Cn4cncn4)(c4ccc(Cl)cc4Cl)O3)cc2)CC1` (stereo not drawn) [Terconazole], the “Inhibition rate (%)” value is reported as 23.916%. `Cc1c(-c2ccc(O)cc2)n(Cc2ccc(OCCN3CCCCCC3)cc2)c2ccc(O)cc12` [Bazedoxifene acetate] was tested, and the “Inhibition rate (%)” value was 49.7454%. Chlorophyllin was tested, and the “Inhibition rate (%)” value was 76.8494%. In the case of `CO[C@H]1C[C@H](O[C@@H]2/C(C)=C/C[C@@H]3C[C@@H](C[C@]4(CC[C@H](C)[C@@H](C5CCCCC5)O4)O3)OC(=O)[C@@H]3C=C(C)/C(=N/O)[C@H]4OC/C(=C\C=C\[C@@H]2C)[C@]43O)O[C@@H](C)[C@@H]1O` [SelaMeerin], the “Inhibition rate (%)” value is reported as 41.6773%. `CNC(=O)c1cc(Oc2ccc(NC(=O)Nc3ccc(Cl)c(C(F)(F)F)c3)c(F)c2)ccn1` [Regorafenib] was tested, and the “Inhibition rate (%)” value was 75.384%. In the case of `CO[C@H]1C[C@H](O[C@H]2[C@H](C)O[C@@H](O[C@@H]3/C(C)=C/C[C@@H]4C[C@@H](C[C@]5(C=C[C@H](C)[C@@H](C6CCCCC6)O5)O4)OC(=O)[C@@H]4C=C(C)[C@@H](O)[C@H]5OC/C(=C\C=C\[C@@H]3C)[C@]54O)C[C@@H]2OC)O[C@@H](C)[C@@H]1O` [Doramectin], the “Inhibition rate (%)” value is reported as 41.6226%. Glycerite was tested, and the “Inhibition rate (%)” value was 90.7883% and 47.3631%. With `C=CC(=O)Nc1cc(Nc2nccc(-c3cn(C)c4ccccc34)n2)c(OC)cc1N(C)CCN(C)C` [AZD9291] the “Inhibition rate (%)” value was 30.3363%. For `CO/N=C1\C[C@]2(C[C@@H]3C[C@@H](C/C=C(\C)C[C@@H](C)/C=C/C=C4\CO[C@@H]5[C@H](O)C(C)=C[C@@H](C(=O)O3)[C@]45O)O2)O[C@H](/C(C)=C/C(C)C)[C@H]1C` [Moxidectin], the “Inhibition rate (%)” value was 46.6799%. For `O=[N+]([O-])c1ccc(O)c2ncccc12` [Nitroxoline], the “Inhibition rate (%)” value was 95.2288%. With `[H]/N=C(\N/C(=N/[H])NCCCCCCNC(=N)NC(=N)Nc1ccc(Cl)cc1)Nc1ccc(Cl)cc1` [Chlorhexidine] the “Inhibition rate (%)” value was 57.6546%. For `CN(C)Cc1ccc(-c2cnn3c(-c4cccc(NC(=O)c5cccc(C(F)(F)F)c5)c4)ccnc23)cc1` [B-Raf IN 1], the “Inhibition rate (%)” value was 14.4684%. For `Cc1cc(O)c2c(c1)C(=O)c1cc(O)cc(O)c1C2=O` [Emodin], the “Inhibition rate (%)” value was 36.2891%. For `COC1CCN(C(=O)c2cc(Cc3n[nH]c(=O)c4ccccc34)ccc2F)CC1` [AZD2461], the “Inhibition rate (%)” value was 76.6732%. In the case of `Cc1ccc(C(=O)Nc2ccc(CN3CCN(C)CC3)c(C(F)(F)F)c2)cc1C#Cc1cnc2[nH]ncc2c1` [GZD824 Dimesylate], the “Inhibition rate (%)” value is reported as 16.2097%. With `COc1cc(NS(=O)(=O)c2ccc(N)cc2)ncn1` [Sulfamonomethoxine] the “Inhibition rate (%)” value was 16.2459%. `COc1cc(N2CCC(N3CCN(C)CC3)CC2)ccc1Nc1ncc(Cl)c(Nc2ccccc2S(=O)(=O)C(C)C)n1` [TAE684 (NVP-TAE684), TAE684] was tested, and the “Inhibition rate (%)” value was 66.6494%. With `Cc1ccc(C(=O)Nc2ccc(S(=O)(=O)[O-])c3cc(S(=O)(=O)[O-])cc(S(=O)(=O)[O-])c23)cc1NC(=O)c1cccc(NC(=O)Nc2cccc(C(=O)Nc3cc(C(=O)Nc4ccc(S(=O)(=O)[O-])c5cc(S(=O)(=O)[O-])cc(S(=O)(=O)[O-])c45)ccc3C)c2)c1.[Na+].[Na+].[Na+].[Na+].[Na+].[Na+]` [Suramin Sodium Salt] the “Inhibition rate (%)” value was 94.3899%. `CC(C)c1cc(-c2n[nH]c(=O)n2-c2ccc3c(ccn3C)c2)c(O)cc1O` [Ganetespib] was tested, and the “Inhibition rate (%)” value was 75.2321%. In the case of `CC(C)/N=c1\cc2n(-c3ccc(Cl)cc3)c3ccccc3nc-2cc1Nc1ccc(Cl)cc1` [Clofazimine], the “Inhibition rate (%)” value is reported as 65.1805%. With `COc1cc(-c2ccc(N=Nc3ccc4c(S(=O)(=O)[O-])cc(S(=O)(=O)[O-])c(N)c4c3O)c(OC)c2)ccc1N=Nc1ccc2c(S(=O)(=O)[O-])cc(S(=O)(=O)[O-])c(N)c2c1O.[Na+].[Na+].[Na+].[Na+]` [CHICAGO SKY BLUE 6B] the “Inhibition rate (%)” value was 87.119%. In the case of `O=C(O)c1cc(O)c2c(c1)[C@@H]([C@H]1c3cc(C(=O)O)cc(O)c3C(=O)c3c(O[C@@H]4O[C@H](CO)[C@@H](O)[C@H](O)[C@H]4O)cccc31)c1cccc(O[C@@H]3O[C@H](CO)[C@@H](O)[C@H](O)[C@H]3O)c1C2=O` [Sennoside B], the “Inhibition rate (%)” value is reported as 68.5523%.

Each compound was assayed against T1, PP2Aa–STRN3 interaction (assay: Second-round validation AlphaScreen, PP2Aa–STRN3 disruption (Table S2)). Settings: not given.
Type: binding
Design: GST; SUMO; made in house; host or cells: E. coli BL21 Codon plus (DE3)
In the case of `CC1=C(O)C(=O)C=C2C1=CC=C1[C@@]2(C)CC[C@@]2(C)[C@@H]3C[C@](C)(C(=O)O)CC[C@]3(C)CC[C@]12C` [CELASTROL], the “Inhibition rate (%)” value is reported as 72.492%. For `COc1cc(N2CCC(N)CC2)ccc1Nc1ncc(Cl)c(-c2c[nH]c3ccccc23)n1` [AZD3463], the “Inhibition rate (%)” value was 68.7355%. In the case of `O=C1NC(=NCc2cccs2)S/C1=C\c1ccc2ncccc2c1` [Ro-3306], the “Inhibition rate (%)” value is reported as 7.46%. `COc1cc(OC)c(C=C2C(O)=Nc3ccccc32)c(OC)c1` [IC261] was tested, and the “Inhibition rate (%)” value was 12.0025%. In the case of `C[n+]1cc2c3c(ccc2c2ccc4cc5c(cc4c21)OCO5)OCO3` [SANGUINARIUM CHLORIDE], the “Inhibition rate (%)” value is reported as 78.0644%. For `NCCNc1ccc(NCCN)c2c1C(=O)c1ccncc1C2=O.O=C(O)/C=C\C(=O)O.O=C(O)/C=C\C(=O)O` [Pixantrone dimaleate], the “Inhibition rate (%)” value was 67.3515%. `CC(C)CN(C[C@@H](O)[C@H](Cc1ccccc1)NC(=O)O[C@H]1CO[C@H]2OCC[C@H]21)S(=O)(=O)c1ccc(N)cc1.CCO` [Darunavir Ethanolate] was tested, and the “Inhibition rate (%)” value was 6.102%. With `CCOc1cc2ncc(C#N)c(Nc3ccc(OCc4ccccn4)c(Cl)c3)c2cc1NC(=O)/C=C/CN(C)C` [Neratinib(HKI-272), Neratinib] the “Inhibition rate (%)” value was 14.7133%. In the case of `CC(=O)OCC1=C(C(=O)O)N2C(=O)[C@@H](NC(=O)CCC[C@@H](N)C(=O)O)[C@H]2SC1` [CEPHALOSPORIN C], the “Inhibition rate (%)” value is reported as 0.4468%.

The compounds below were run against T2, STRN3–MST2 interaction (assay: Primary AlphaScreen, STRN3–MST2 disruption (Table S3)). Settings: not given.
Type: binding
Design: His-SUMO; made in house; host or cells: E. coli BL21 Codon plus (DE3)
With `OC[C@H]1O[C@@H](OCCc2ccc(O)cc2)[C@H](O)[C@@H](O)[C@@H]1O` [Salidroside] the “Inhibition rate (%)” value was 1.142%. For `CNC1CCCN(c2c(F)cc3c(=O)c(C(=O)O)cn(C4CC4)c3c2OC)C1` (stereo not drawn) [Balofloxacin], the “Inhibition rate (%)” value was 7.865%. `C[N+](C)(C)CC(=O)O` [BETAINE HYDROCHLORIDE] was tested, and the “Inhibition rate (%)” value was -4.318%. `NCCS(=O)(=O)O` [Taurine] was tested, and the “Inhibition rate (%)” value was -4.763%.

Each compound was assayed against PP2Aa–STRN3–PP2Ac holophosphatase (Homo sapiens, UniProt P30153) (assay: not given). Settings: in vitro, dose-dependent.
Sequence of PP2Aa–STRN3–PP2Ac holophosphatase (P30153 8-589): as the sequence (P30153 8-589) above
Sequence of PP2Aa–STRN3–PP2Ac holophosphatase (P67775 whole entry partner): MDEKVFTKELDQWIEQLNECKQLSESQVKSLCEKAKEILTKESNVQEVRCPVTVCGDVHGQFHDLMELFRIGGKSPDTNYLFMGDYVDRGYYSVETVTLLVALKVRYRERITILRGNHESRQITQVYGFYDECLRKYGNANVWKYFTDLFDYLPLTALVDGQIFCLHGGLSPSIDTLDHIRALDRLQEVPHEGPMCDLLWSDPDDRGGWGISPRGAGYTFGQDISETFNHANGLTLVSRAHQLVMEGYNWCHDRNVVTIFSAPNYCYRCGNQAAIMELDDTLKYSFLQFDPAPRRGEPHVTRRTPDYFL
In the case of `CN(C)C(=S)SSC(=S)N(C)C` [TH, thiram], the “phosphorylation level of MST1/2 (pMST1/2) in dephosphorylation assay” value is reported as “dose-dependently recover”. With `CCN(CC)C(=S)SSC(=S)N(CC)CC` [DSF, disulfiram] the “phosphorylation level of MST1/2 (pMST1/2) in dephosphorylation assay” value was “dramatically recovered”.
